Source: the supplement of paper PMC7125110
± gives the standard error. Variants at the background level are over-represented here.

B1: glmS ribozyme (parent)
chain: AUAAAAGCGCCAGAACUACAGAAAUGUAGUUGACGAGGAGGAGGUUUAUCGAAUUUUCGGCGGAUGCCUCCAAA

Variants of: B1
Assay: self-cleavage kobs at 2500 uM GlcN6P; higher = faster cleavage; RNA array
Settings: with glucosamine-6-phosphate
Procedure, shortened: (§1)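 In situ transcription by E. coli RNA polymerase produced barcoded ribozyme variants on sequenced MiSeq chips, and a hybridised Cy3 probe tracked them at 37 °C. Glucosamine-6-phosphate was flowed in at 40 μM to 10 mM in HEPES/KCl/Mg(OAc)2 buffer. kcat and KM were taken from weighted Michaelis–Menten fits of kobs values from exponential decay fits.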

Variant	self-cleavage kobs at 2500 uM GlcN6P [s⁻¹]
AUAAAAGCGCCAGAACUACAGAAAUGUAGUUGACGACGAGGCGGUUUAUCGAAUUUUCGGCGGAUGCCACCAAA	< 1e-05
AUAAAAGCGCCAGAACUACAGAAAUGUAGUUGACGAGGAGACGGUUUAUCGAAUUUUCGGCGGAUGCCUCCAAA	6.51e-05 ± 1.8e-05
AUAAAAGCGCCAGAACUACAGAAAUGUAGUUGACGAGGAUAAGGUUUAUCGAAUUUUCGGCGGAUGACUUCAAA	0.000143 ± 3.7e-05
AUAAAAGCGCCAGAACUACAGAAAUGUAGUUGACGAGGUGGAGGUUUAUCGAAUUUUCGGCGGAUGCCAGCAAA	< 1e-05
AUAAAAGCGCCAGAACUACAGAAAUGUAGUUGACGAGGGGGGGGUUUAUCAAAUUUUCGGCGGAUGCCUUUAAA	< 1e-05
AUAAAAGCGCCAGAACUACAGAAAUGUAGUUGACGACGAGGAGGUUUAUCGAAUUUUCGGCGGUUGCGUCCAAA	< 1e-05
AUAAAAGCGCCAGAACUACAGAAAUGUAGUUGACGAGUUGGAGGUUUAUCGAAUUUUCGUCGGAUGCCUCCAAA	< 1e-05
AUAAAAGCGCCAGAACUACAGAAAUGUAGUUGACGAGAAGGAGGUUUAUCGAAUUGUCGGCGGAUGCCUCCAAA	< 1e-05
AUAAAAGCGCCAGAACUACAGAAAUGUAGUUGACGAUGAGGAGGUUUAUCCUAUUUUCGGCGGAUGCCUCCAAA	< 1e-05
AUAAAAGCGCCAGAACUACAGAAAUGUAGUUGACGAGGUGGAGGUUUAUCGAAUUUUCGACGGAGGCCUCCAAA	< 1e-05
AUAAAAGCGCCAGAACUACAGAAAUGUAGUUGACGACGAAGAGCUUUAUCGAAUUUUCGGCGGAUGCCUCCAAA	< 1e-05
AUAAAAGCGCCAGAACUACAGAAAUGUAGUUGACGAGUAUGAGGUUUAUCGAAUUUUCGGCGGAUGCCUACAAA	< 1e-05
AUAAAAGCGCCAGAACUACAGAAAUGUAGUUGACGAGGAUGAGGUUUAUCGAAUUUUCGGCGGAUACCUUCAAA	0.0016 ± 0.00053
AUAAAAGCGCCAGAACUACAGAAAUGUAGUUGACGAGGAAGAGGUUUAUCGGAUUUUCGGAGGAUGCCUCCAAA	< 1e-05
AUAAAAGCGCCAGAACUACAGAAAUGUAGUUGACGAGUAGGAGGUUUAUUGAAUUUUCGGCGGAUGCCUCCAAA	< 1e-05
AUAAAAGCGCCAGAACUACAGAAAUGUAGUUGACGAGGGGGAGGUUUAACGAAUCUUCGGCGGAUUCCUCCAAA	< 1e-05
AUAAAAGCGCCAGAACUACAGAAAUGUAGUUGACGAGCAGGAGGUAUAUGGAAUUUUCGGCGGAUGCCUCCAAA	< 1e-05

Variant	self-cleavage kobs at 2500 uM GlcN6P [s⁻¹]
AUAAAAGCGCCAGAACUACAGAAAUGUAGUUGACGAGCAGGAGAUUUAUCGGAUUUUCGGCGGAUGCCUCCAAA	< 1e-05
AUAAAAGCGCCAGAACUACAGAAAUGUAGUUGACGAGCAGUAGGUGUAUCGAAUUUUCGUUGGAUGCCACCAAA	< 1e-05
AUAAAAGCGCCAGAACUACAGAAAUGUAGUUGACGAGGAAGAGGUUUAACGAAUUUUCGGCGGAUGCCUCCAAA	< 1e-05
AUAAAAGCGCCAGAACUACAGAAAUGUAGUUGACGAUGAGGAGGUUUAUCGAAUUUCAGGCUGAUGCCUCCAAA	< 1e-05
AUAAAAGCGCCAGAACUACAGAAAUGUAGUUGACGAGAAGGAUGUUUAUCGAAUUUUCGGCGGACGCCUCCAAA	< 1e-05
AUAAAAGCGCCAGAACUACAGAAAUGUAGUUGACGAGUAGGAGGUUUAUCGAAUAUUCGGCAGAUGCCGCCAAA	0.0012 ± 0.00058
AUAAAAGCGCCAGAACUACAGAAAUGUAGUUGACGAUAAGGAGGUCUAUCGAAUUUUCGGCGGAUGCCUCCAAA	< 1e-05
AUAAAAGCGCCAGAACUACAGAAAUGUAGUUGACGAGGAAGAGGUUUAUCGAACUUUCGUCGGAUGCCUCCAAA	< 1e-05
AUAAAAGCGCCAGAACUACAGAAAUGUAGUUGACGAGGCGGAGGUUUAUCGAAUUUUCAGCGUAUGCCUCCAAA	< 1e-05
AUAAAAGCGCCAGAACUACAGAAAUGUAGUUGACGAUGCGGAGGUUCAUCGAAUUUUCGGCGGAUGCCUCCAAA	< 1e-05
AUAAAAGCGCCAGAACUACAGAAAUGUAGUUGACGACGAGGAGGUUUAUCGAAGUUUCGGCGCAUGCCUCCAAA	< 1e-05
AUAAAAGCGCCAGAACUACAGAAAUGUAGUUGACGAGCAGGAGGUUUAUCAAAUUUCCGGCGGAUGCCUCCAAA	< 1e-05
AUAAAAGCGCCAGAACUACAGAAAUGUAGUUGACGAGUAGGAUGUUUAUCGAAUUUUCGGCGGGUGCCUCCAAA	< 1e-05
AUAAAAGCGCCAGAACUACAGAAAUGUAGUUGACGAAGAGGAGUUUUAUCGAAUCUGCGGCGGAUGCCUCCAAA	< 1e-05
AUAAAAGCGCCAGAACUACAGAAAUGUAGUUGACGAGGCGGAGGUUUAUCGAAUCUUCGGCAGAUGCCUUCAAA	< 1e-05
AUAAAAGCGCCAGAACUACAGAAAUGUAGUUGACGAAGAGGAGGUUUAUCGAAUUUUCGGCCGAUGCCUACAAA	< 1e-05

Variants of: B1
Assay: self-cleavage kobs at 10000 uM GlcN6P; higher = faster cleavage; RNA array
Settings: with glucosamine-6-phosphate
Procedure, shortened: as §1

Variant	self-cleavage kobs at 10000 uM GlcN6P [s⁻¹]
AUAAAAGCGCCAGAACUACAGAAAUGUAGUUGACGAGGAGACGGUUUAUCGAAUUUUCGGCGGAUGCCUCCAAA	3.53e-05 ± 1.3e-05
AUAAAAGCGCCAGAACUACAGAAAUGUAGUUGACGACGAGGAGGUUUAUCGAAUUUUCGGCGGUUGCGUCCAAA	< 1e-05
AUAAAAGCGCCAGAACUACAGAAAUGUAGUUGACGAGGUGGAGGUUUAUCGAAUUUUCGACGGAGGCCUCCAAA	< 1e-05
AUAAAAGCGCCAGAACUACAGAAAUGUAGUUGACGAGCAGGAGGUUUAUCAAAUUUCCGGCGGAUGCCUCCAAA	< 1e-05
